# Laboratory results: the supplement of paper PMC8728848
# This is one part of the list.
# B1: AFL5 (Aspergillus fumigatus), Q4WB00 (protein)
# chain: MDNFMEMTKKLGHQPELLRLRALDATYDDALEGKLVVAPLDMSEPGKKILDSGTADGTWLRNVRSKQSVPHDYYGSDVEGELFPKDPDGITYFAHSFKDPWPQQYLGFFDLVHIRGSLAGSAPEGPAPVIQNLTTLLKPGGWVQLMEMNAFSPPPNGPAMTDFAKMASEMFTGIGVGDFANNNKSMLEDAGLKNVQEKRVIVNLGKKAKPELHDQSIHGVTGPIVPLTSVARTVKSSFTGEQLDALPARVKEELETEGGQVEMIIAFGQKA
# Assays:
# Assay in all cases: glycan array binding signal (z-score within array); higher = stronger binding
# Details in all cases: glycan notation: IUPAC condensed, linker removed
# [1] = biological target: Neu5Ac(a2-3)Gal(b1-3)GlcNAc(b1-6)GalNAc
# Outline: (§1)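 The binding signal is a Z-score computed within each array. Data were drawn from 3228 arrays in the Consortium for Functional Glycomics database, restricted to those with a known protein sequence. Scores were averaged over arrays of the same protein sequence at different concentrations or buffers, and over linkers, and negative values can be taken as non-binding.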
# [2] = biological target: Neu5Ac(a2-3)Gal(b1-3)GlcNAc6S
# Outline: as §1
# [3] = biological target: Neu5Ac(a2-3)Gal(b1-3)[Fuc(a1-4)]GlcNAc
# Outline: as §1
# [4] = biological target: Neu5Ac(a2-3)Gal(b1-3)[Fuc(a1-4)]GlcNAc(b1-3)Gal(b1-3)[Fuc(a1-4)]GlcNAc
# Outline: as §1
# [5] = biological target: Neu5Ac(a2-3)Gal(b1-3)[Fuc(a1-4)]GlcNAc(b1-3)Gal(b1-4)[Fuc(a1-3)]GlcNAc
# Outline: as §1
# [6] = biological target: Neu5Ac(a2-3)Gal(b1-3)[GlcNAc(b1-6)]GalNAc
# Outline: as §1
# [7] = biological target: Neu5Ac(a2-3)Gal(b1-3)[Neu5Ac(a2-6)]GalNAc
# Outline: as §1
# [8] = biological target: Neu5Ac(a2-3)Gal(b1-3)[Neu5Ac(a2-6)]GlcNAc(b1-3)[Fuc(a1-3)[Gal(b1-4)]GlcNAc(b1-6)]Gal(b1-4)Glc
# Outline: as §1
# [9] = biological target: Neu5Ac(a2-3)Gal(b1-3)]Neu5Ac(a2-3)Gal(b1-4)]GlcNAc
# Outline: as §1
# Neu5Ac(a2-3)Gal(b1-4)Glc = biological target: Neu5Ac(a2-3)Gal(b1-4)Glc
# Outline: as §1
# [10] = biological target: Neu5Ac(a2-3)Gal(b1-4)GlcNAc
# Outline: as §1
# [11] = biological target: Neu5Ac(a2-3)Gal(b1-4)GlcNAc(b1-2)Man
# Outline: as §1
# [12] = biological target: Neu5Ac(a2-3)Gal(b1-4)GlcNAc(b1-2)Man(a1-3)[GlcNAc(b1-4)][Neu5Ac(a2-3)Gal(b1-4)GlcNAc(b1-2)Man(a1-6)]Man(b1-4)GlcNAc(b1-4)GlcNAc
# Outline: as §1
# [13] = biological target: Neu5Ac(a2-3)Gal(b1-4)GlcNAc(b1-2)Man(a1-3)[Neu5Ac(a2-3)Gal(b1-4)GlcNAc(b1-2)Man(a1-6)]Man(b1-4)GlcNAc(b1-4)GlcNAc
# Outline: as §1
# [14] = biological target: Neu5Ac(a2-3)Gal(b1-4)GlcNAc(b1-2)Man(a1-3)[Neu5Ac(a2-3)Gal(b1-4)GlcNAc(b1-2)Man(a1-6)]Man(b1-4)GlcNAc(b1-4)[Fuc(a1-6)]GlcNAc
# Outline: as §1
# [15] = biological target: Neu5Ac(a2-3)Gal(b1-4)GlcNAc(b1-2)Man(a1-3)[Neu5Ac(a2-6)Gal(b1-4)GlcNAc(b1-2)Man(a1-6)]Man(b1-4)GlcNAc(b1-4)GlcNAc
# Outline: as §1
# [16] = biological target: Neu5Ac(a2-3)Gal(b1-4)GlcNAc(b1-2)[Neu5Ac(a2-3)Gal(b1-4)GlcNAc(b1-4)]Man(a1-3)[GlcNAc(b1-4)][Neu5Ac(a2-3)Gal(b1-4)GlcNAc(b1-2)[Neu5Ac(a2-3)Gal(b1-4)GlcNAc(b1-6)]Man(a1-6)]Man(b1-4)GlcNAc(b1-4)GlcNAc
# Outline: as §1
# [17] = biological target: Neu5Ac(a2-3)Gal(b1-4)GlcNAc(b1-2)[Neu5Ac(a2-3)Gal(b1-4)GlcNAc(b1-4)]Man(a1-3)[GlcNAc(b1-4)][Neu5Ac(a2-3)Gal(b1-4)GlcNAc(b1-4)Man(a1-6)]Man(b1-4)GlcNAc(b1-4)GlcNAc
# Outline: as §1
# [18] = biological target: Neu5Ac(a2-3)Gal(b1-4)GlcNAc(b1-2)[Neu5Ac(a2-3)Gal(b1-4)GlcNAc(b1-6)]Man(a1-6)[Neu5Ac(a2-3)Gal(b1-4)GlcNAc(b1-2)Man(a1-3)][GlcNAc(b1-4)]Man(b1-4)GlcNAc(b1-4)GlcNAc
# Outline: as §1
# [19] = biological target: Neu5Ac(a2-3)Gal(b1-4)GlcNAc(b1-3)Gal
# Outline: as §1
# [20] = biological target: Neu5Ac(a2-3)Gal(b1-4)GlcNAc(b1-3)Gal(b1-3)GlcNAc
# Outline: as §1
# [21] = biological target: Neu5Ac(a2-3)Gal(b1-4)GlcNAc(b1-3)Gal(b1-4)GlcNAc
# Outline: as §1
# [22] = biological target: Neu5Ac(a2-3)Gal(b1-4)GlcNAc(b1-3)Gal(b1-4)GlcNAc(b1-2)Man(a1-3)[Neu5Ac(a2-3)Gal(b1-4)GlcNAc(b1-3)Gal(b1-4)GlcNAc(b1-2)Man(a1-6)]Man(b1-4)GlcNAc(b1-4)GlcNAc
# Outline: as §1
# [23] = biological target: Neu5Ac(a2-3)Gal(b1-4)GlcNAc(b1-3)Gal(b1-4)GlcNAc(b1-3)Gal(b1-4)GlcNAc
# Outline: as §1
# [24] = biological target: Neu5Ac(a2-3)Gal(b1-4)GlcNAc(b1-3)Gal(b1-4)GlcNAc(b1-3)Gal(b1-4)GlcNAc(b1-2)Man(a1-3)[Neu5Ac(a2-3)Gal(b1-4)GlcNAc(b1-3)Gal(b1-4)GlcNAc(b1-3)Gal(b1-4)GlcNAc(b1-2)Man(a1-6)]GalNAc
# Outline: as §1
# [25] = biological target: Neu5Ac(a2-3)Gal(b1-4)GlcNAc(b1-3)Gal(b1-4)GlcNAc(b1-3)GalNAc
# Outline: as §1
# [26] = biological target: Neu5Ac(a2-3)Gal(b1-4)GlcNAc(b1-3)Gal(b1-4)GlcNAc(b1-3)[Neu5Ac(a2-3)Gal(b1-4)GlcNAc(b1-3)Gal(b1-4)GlcNAc(b1-6)]GalNAc
# Outline: as §1
# [27] = biological target: Neu5Ac(a2-3)Gal(b1-4)GlcNAc(b1-3)Gal(b1-4)GlcNAc(b1-6)[Gal(b1-3)]GalNAc
# Outline: as §1
# [28] = biological target: Neu5Ac(a2-3)Gal(b1-4)GlcNAc(b1-3)Gal(b1-4)[Fuc(a1-3)]GlcNAc
# Outline: as §1
# [29] = biological target: Neu5Ac(a2-3)Gal(b1-4)GlcNAc(b1-3)GalNAc
# Outline: as §1
binder,measurement,setting,value
B1,glycan array binding signal (z-score),[1],0.328
same,glycan array binding signal (z-score),[2],-0.33
same,glycan array binding signal (z-score),[3],-0.235
same,glycan array binding signal (z-score),[4],0.57
same,glycan array binding signal (z-score),[5],-0.176
same,glycan array binding signal (z-score),[6],-0.184
same,glycan array binding signal (z-score),[7],-0.393
same,glycan array binding signal (z-score),[8],0.688
same,glycan array binding signal (z-score),[9],0.099
same,glycan array binding signal (z-score),Neu5Ac(a2-3)Gal(b1-4)Glc,0.072
same,glycan array binding signal (z-score),[10],-0.07
same,glycan array binding signal (z-score),[11],0.737
same,glycan array binding signal (z-score),[12],0.146
same,glycan array binding signal (z-score),[13],-0.219
same,glycan array binding signal (z-score),[14],-0.015
same,glycan array binding signal (z-score),[15],-0.363
same,glycan array binding signal (z-score),[16],-0.241
same,glycan array binding signal (z-score),[17],-0.417
same,glycan array binding signal (z-score),[18],-0.251
same,glycan array binding signal (z-score),[19],-0.44
same,glycan array binding signal (z-score),[20],-0.223
same,glycan array binding signal (z-score),[21],0.372
same,glycan array binding signal (z-score),[22],-0.191
same,glycan array binding signal (z-score),[23],-0.053
same,glycan array binding signal (z-score),[24],2.14
same,glycan array binding signal (z-score),[25],-0.218
same,glycan array binding signal (z-score),[26],0.858
same,glycan array binding signal (z-score),[27],-0.326
same,glycan array binding signal (z-score),[28],0.109
same,glycan array binding signal (z-score),[29],0.859
